# Data: PubChem BioAssay AID686979 (National Center for Advancing Translational Sciences (NCATS), 2013)
# Screen size: about 420,000 compounds; about 50,000 (12%) were called active. Inconclusive results, whose numbers are uncertain, are shown with a selection of clear calls. The call rests on the fitted dose curve; in most records, active means well fitted inhibition curve with a large enough effect; inconclusive means small, poorly fitted or top-dose-only effect; inactive means flat fitted curve, though single readings scatter. No potency is given beside an inconclusive call; the fits are too rough. Where a structure was tested more than once in an assay, its records may differ in their call.
# Test: qHTS for Inhibitors of human tyrosyl-DNA phosphodiesterase 1 (TDP1): qHTS in cells in presence of CPT; further: nearly all actives have a fitted effect of over 55% in size
# Conditions: chicken DT40 Tdp1-/-;hTDP1 cells + 20 nM CPT, ATP luminescence, 48 h; activity change, negative = growth inhibition: at 46.2 µM (top of the series) unless noted
# Procedure, shortened: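 Cell growth measured by CellTiter-Glo luminescence after a minimum 48 h, 37 C compound exposure with 20 nM CPT in Tdp1-knockout DT40 cells stably expressing hTDP1, seeded 400/well; qHTS titration format.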
# On the % scale 0 is the no-effect control and ±100 the full control effect; potency means the concentration at half of the fitted maximal effect; tags describe the fitted curve by direction and shape.
SMILES,Potency,"activity change, negative = growth inhibition"
S=C(Nc1ccc(Cl)cc1Cl)N1CCOCC1,inactive,–
CCc1ccccc1N(CC)C(=O)c1cn(CC)c(=O)c2cc(OC)c(OC)cc12,"inconclusive [inhibitor, single point]",–
N#CC(=C1CCCC1)c1nc(-c2ccccc2O)cs1,–,inconclusive: -31.7% [inhibitor]
COc1ccc(C(C)=O)cc1Cn1c(C)c(C(=O)NCc2cccc(Cl)c2)sc1=O,"inconclusive [inhibitor, single point]",–
O[C@@H]([C@H](O)[C@H](O)CBr)[C@H](O)CBr,active: 18.4 µM,–
COc1ccc(-c2[nH]c(-c3ccc(C)cc3)nc2SCC(=O)NC2CCCC2)cc1,"inconclusive [inhibitor, single point]",–
CC(Sc1nnc(-c2ccc(Cl)cc2Cl)n1Cc1ccccc1)C(=O)Nc1nccs1 (stereo not given),"inconclusive [inhibitor, single point]",–
N#CCSc1nc2[nH]ncc2c(=O)n1-c1ccccc1Br,–,inconclusive: -30.2% [inhibitor]
CCCn1c(C)cc(C(=O)CSc2nc3nc(C)cc(C)n3n2)c1C,"inconclusive [inhibitor, partial curve]",–
O=C(Nc1cccnc1Cl)c1cc(-c2ccccc2O)on1,"inconclusive [inhibitor, single point]",–
CC(=O)N1CC(C)Sc2ccc(S(=O)(=O)NCCc3ccc(C)cc3)cc21 (stereo not given),active: 18.4 µM,–
O=C(/C=C/c1ccco1)Nc1ccccc1N1CCCC1,"inconclusive [inhibitor, single point]",–
[O-][N+](=C(c1ccccc1)c1ccccc1)c1ccccc1,"inconclusive [inhibitor, partial curve]",–
CC(OC(=O)c1cc(=O)[nH]c2ccccc12)C(=O)NC1CCCC1 (stereo not given),inactive,–
Cc1cc(C)cc(C(=O)N(Cc2nc(-c3ccc(Cl)cc3)no2)C(C)C)c1,active: 20.6 µM,–
CCc1ccc(-c2cc3c(=O)n(CC(=O)NCCCN4CCN(Cc5ccccc5)CC4)nc(C)n3n2)cc1,active: 20.6 µM,–
C[C@H](NC(=O)c1[nH]cnc1C(=O)Nc1ccccc1)C(=O)OC(C)(C)C,"inconclusive [inhibitor, single point]",–
CCOc1ccccc1NC(=S)NC(=O)C1CC1,–,inconclusive: -33.6% [inhibitor]
CCN(CCCNC(=O)CN1C(=O)COc2ccc(S(=O)(=O)N3CCC(C)CC3)cc21)Cc1ccccc1,"inconclusive [inhibitor, full curve, poor fit]",–
COc1cccc(CNC(=O)[C@@H]2CCCN2C(=O)[C@@H]2CCCN2C(=O)c2ccc(Cl)cc2)c1,"inconclusive [inhibitor, single point]",–
COc1ccc(NC(=O)CC(c2ccc(F)cc2)c2ccc(OC(C)C)cc2)cc1 (stereo not given),"inconclusive [inhibitor, single point]",–
Cc1cccc([C@@H]2[C@@H]3C(=O)N(Cc4ccccc4)C(=O)[C@@H]3[C@]3(C)C(=O)N(c4ccc(C(F)(F)F)cc4)C(=O)N23)c1,"inconclusive [inhibitor, single point]",–
COC(=O)CSc1nc(SCc2ccc(C)cc2)nc2c1CCCC2,inactive,–

SMILES,Potency,"activity change, negative = growth inhibition"
COC(=O)c1ccc(OCC(O)Cn2cnc3cc(C)c(C)cc32)cc1 (stereo not given),"inconclusive [inhibitor, single point]",–
CN1CCN(CC(=O)Nc2c(C(=O)C3CC3)oc3ccccc23)CC1,"inconclusive [inhibitor, single point]",–
COc1ccc(N2CCN(C(=O)c3cn(C4CCCC4)c(=O)c4c3c3ccccc3n4C)CC2)cc1,active: 16.4 µM,–
Cc1cc(C)cc(NC(=O)/C=C/c2ccc([N+](=O)[O-])s2)c1,"inconclusive [inhibitor, partial curve]",–
CCOC(=O)c1ccc(N2C(=O)C(O)=C(C(C)=O)C2c2ccc([N+](=O)[O-])cc2)cc1 (stereo not given),inactive,–
CCCCN1C(N)=NC[C@@H]1Cc1ccccc1,active: 7.31 µM,–
CN(C)C(=O)c1ccc(NC(=O)c2cccc(-n3cnnn3)c2)cc1,inactive,–
COC(=O)N/N=C/c1cn(CCOc2cccc(OC)c2)c2ccccc12,"inconclusive [inhibitor, single point]",–
COc1ccc(-c2noc(N3CCC(C(=O)N(C)c4ccccc4C)CC3)n2)cc1,"inconclusive [inhibitor, single point]",–
C=CCNc1nc(NCc2ccc(NC(C)=O)cc2)c2sc(-c3ccccc3)cc2n1,active: 8.2 µM,–
COc1ccc(N2CC(C(=O)NCCN3C(=O)S/C(=C\c4cccnc4)C3=O)CC2=O)c(OC)c1 (stereo not given),inactive,–
O=C(c1ccc(Br)o1)N(c1ccccn1)C1CCCCC1,"inconclusive [inhibitor, single point]",–
COc1ccc2c(c1)-c1c(ssc1=S)C(C)(C)N2S(=O)(=O)c1ccc(C)cc1,active: 14.6 µM,–
CC(C)OC(=O)CC1C(=O)NCCN1C(=S)NC(=O)c1ccccc1 (stereo not given),inactive,–
COCCCNC(=O)c1c(NC(=O)c2nc(S(C)(=O)=O)ncc2Cl)sc2c1CCCC2,active: 1.03 µM,–
COc1cccc(Cn2c(-c3nonc3N)nc3ccccc32)c1,active: 2.91 µM,–
O=C(C1CCN(C2CCN(C/C(Cl)=C/c3ccccc3)CC2)CC1)N1CCOCC1,"inconclusive [inhibitor, single point]",–
COc1ccc(NC(=O)CC2SC(=Nc3ccccc3)NC2=O)c(OC)c1 (stereo not given),"inconclusive [inhibitor, single point]",–
O=C(C1CCCN(Cc2ccccc2C(F)(F)F)C1)N1CCCCC1 (stereo not given),"inconclusive [inhibitor, single point]",–
C=CCC[C@H](Cc1ccc(F)cc1)C(=O)OC[C@@H](C)NC(=O)[C@H](CC=C)CC(=O)NCCO,inactive,–
Cc1ccc(C(=O)Nc2ccc(-c3nc4ccccc4s3)c(O)c2)c(C)c1,active: 10.3 µM,–
Cc1cccc(C)c1NC(=O)C1(C)CSCC(=O)N1CCc1c[nH]c2ccccc12 (stereo not given),"inconclusive [inhibitor, single point]",–
